Here are results for 40 molecules from ChEMBL document CHEMBL4888484, “Replenishing the malaria drug discovery pipeline: Screening and hit evaluation of the MMV Hit Generation Library 1 (HGL1) against asexual blood stage Plasmodium falciparum ,using a nano luciferase reporter read-out” (2022).

The campaign covered roughly 150,000 compounds. About 540 (0.36%) showed an effect of 50% or more. Some of the results follow.

In this assay the test system is Plasmodium falciparum. Briefly: Primary screen in NF54 nanoGlo assay, in single point, at 2uM, 72h; a lower Z score goes with more inhibition. It counts as functional, Erythrocyte. As to conditions: timepoint 72 hour.
For the molecule `O=C(Cc1c[nH]c2cc(Cl)ccc12)NC1CCN(C[C@H]2CCOC2)CC1`, the % Inhibition – broadly, the drop in the measured response relative to a control, in per cent – is given as -11% and the Z score is on record as 1.57.

Turning to `Cc1nc2ccccc2c2nc(NC(=O)c3ccc4nsnc4c3)nn12`, the “% Inhibition” value is recorded as -16% and the Z score is listed as 2.1.

On to `COc1ccc(CN2[C@@H]3CC[C@H]2CN(C)C(=O)C3)cc1Cn1cccn1`, for which the “% Inhibition” value is -1% and the Z score is 0.13.

On to `Cn1ccc(C(=O)N2CCC[C@@]3(CCC(=O)N(Cc4cccnc4)C3)C2)cc1=O`, for which the “% Inhibition” value is -16% and the Z score is listed as 1.82.

As to `CCOc1ccc(C(=O)N/C(=N/c2ccc([C@@H](C)CC)cc2)NCc2ccncc2)cc1`, the “% Inhibition” value is listed as -12% and the Z score is listed as 2.05.

`CCc1ccc(C(=O)Nc2cnc(-n3ccnc3)nc2)cc1`: the “% Inhibition” value is reported as 38% and the Z score is given as -8.38.

With `CNc1cc([C@H]2C[C@@H](NC(=O)c3cc(C#N)cn3C)C2)nc(N)n1`, the “% Inhibition” value was -5% and the Z score stood at 0.46.

Consider `CN(CCCNC(=O)[C@H]1CCCN(S(=O)(=O)c2ccc3c(ccn3C)c2)C1)Cc1ccccc1`, for which the “% Inhibition” value is given as -13% and the Z score was 2.36.

For the molecule `Cc1noc(C)c1S(=O)(=O)N1CC[C@H](c2noc(-c3ccncc3)n2)C1`, the “% Inhibition” value is reported as -8% and the Z score came to 0.98.

Consider `Cc1cc(S(=O)(=O)n2c(/C=C/c3ccccc3)nc3ccccc32)ccc1F`, for which the “% Inhibition” value is given as 5% and the Z score is reported as -0.62.

As for `Cc1ccccc1N1CCN(c2ncccc2CNCc2ccccn2)CC1`, the “% Inhibition” value is -3% and the Z score was 0.65.

`O=C(c1cnn2c1CCC2)N1CCc2ncccc21`: the “% Inhibition” value was -8% and the Z score amounted to 1.53.

`CCCC(=O)N1CCCN(c2nc(Cc3ccc(C)cc3)nc3c2c(C)nn3-c2ccc(F)cc2)CC1`: the “% Inhibition” value is 8% and the Z score was -1.12.

For `Cc1sc(CCNCc2cnn(C)c2)nc1-c1ccccc1`, the “% Inhibition” value is -10% and the Z score is recorded as 1.05.

`Cc1nn(C(F)F)c(C)c1S(=O)(=O)NC1CCCCCC1`: the “% Inhibition” value was determined as 7% and the Z score is recorded as -0.98.

As to `Cc1cnccc1CN(C)c1cc([C@H]2CCOC2)nc(NCCO)n1`, the “% Inhibition” value was -14% and the Z score stood at 2.77.

Consider `COc1cccc(CN2CC3(CCN(c4ccncc4)CC3)CC2=O)c1`, for which the “% Inhibition” value was -1% and the Z score turned out to be 0.12.

Consider `O=C(CC[C@H]1CCCO1)N1CCC(c2ccsc2)CC1`, for which the “% Inhibition” value was -3% and the Z score was found to be 0.64.

As to `Cc1cc(CN2C(=O)N[C@]3(CCc4ccccc4C3)C2=O)nc(C)n1`, the “% Inhibition” value came to 1% and the Z score is -0.14.

Regarding `CCC(=O)c1cccc(S(=O)(=O)Nc2ncc(-c3cncc(F)c3)cn2)c1`, the “% Inhibition” value is given as -12% and the Z score was determined as 2.33.

For the molecule `COc1ccc(NC(=O)C2(N(Cc3nc(-c4ccccc4)cs3)C(=O)Cn3nnc4ccccc43)CCCCC2)cc1`, the “% Inhibition” value was found to be 55% and the Z score is given as -6.2.

Consider `CCc1nc(C)c([C@H]2CN(C)C[C@@H]2C(=O)NCc2oc3ccccc3c2C)[nH]1`, for which the “% Inhibition” value is 0% and the Z score is listed as -0.06.

Regarding `Cc1cc(C(=O)CN2CCC[C@H]2c2nncn2C)c(C)[nH]1`, the “% Inhibition” value is recorded as 1% and the Z score is on record as -0.2.

For the molecule `CCCC(=O)N1CCC[C@@]2(CCC(=O)N(CCc3c[nH]cn3)C2)C1`, the “% Inhibition” value worked out at 12% and the Z score is on record as -1.57.

As to `Cc1cc2c(cnc3ncnn32)c(=O)n1NC(=O)c1ccncc1`, the “% Inhibition” value is given as -8% and the Z score is 1.04.

Regarding `C[C@H](NC(=O)c1nccn1C)c1ccc(S(C)(=O)=O)c(F)c1`, the “% Inhibition” value is on record as -5% and the Z score amounted to 0.89.

In the case of `Cn1cc(-c2ccc3c(n2)N(C(=O)C2CC4C=CC2C4)CCC3)cn1` (stereo not given), the “% Inhibition” value was -11% and the Z score is listed as 2.09.

On to `CCNC(=O)N1CCC(c2nnc(CN3CCCCCC3)n2C)CC1`, for which the “% Inhibition” value is -9% and the Z score was 1.19.

On to `CC(=O)O[C@H](c1ccccc1)c1nc(C2CCN(C(=O)C(C)(C)C)CC2)no1`, for which the “% Inhibition” value was -5% and the Z score stood at 0.67.

With `CC(C)(NC(=O)c1cc(=O)[nH]c(C2CC2)n1)[C@H](O)C(F)(F)F`, the “% Inhibition” value is -30% and the Z score was 3.22.

`CN(CC(=O)N1CCN(c2ncccn2)CC1)C(=O)c1cccs1`: the “% Inhibition” value was -4% and the Z score came to 0.69.

With `Cc1ccc(NC(=O)CN2C(=O)CCCc3cc(S(=O)(=O)N4CCC(C)CC4)ccc32)cc1C`, the “% Inhibition” value is recorded as -8% and the Z score was 1.09.

For the molecule `O=S(=O)(Nc1ccc(C(F)(F)F)cn1)c1ccc2c(c1)OCCO2`, the “% Inhibition” value is recorded as -18% and the Z score was 2.35.

Consider `Cc1cccc(C[C@@H](CO)NC(=O)c2n[nH]c3ccccc3c2=O)c1`, for which the “% Inhibition” value is recorded as -7% and the Z score is on record as 0.93.

On to `Cc1noc(C)c1CCC(=O)N1CC2CC1C2NC(=O)C1(C)CCOCC1` (stereo not given), for which the “% Inhibition” value amounted to 1% and the Z score was -0.16.

On to `CN(C(=O)[C@H](N)c1ccccc1)C1CC1`, for which the “% Inhibition” value is 0% and the Z score is on record as -0.01.

As to `COc1ccsc1S(=O)(=O)N1CCC2(CCN(C)CC2)C1`, the “% Inhibition” value is -4% and the Z score was 0.41.

As to `C#CCCC1(CCC(=O)N2CCC3C(C2)C3(F)F)N=N1` (stereo not given), the “% Inhibition” value is recorded as 0% and the Z score is 0.03.

Take `O=C([C@H]1CCCN(c2nnc3c(Cl)cccn23)C1)N1CCN(c2ccccc2)CC1`: the “% Inhibition” value is 11% and the Z score is -1.25.

Turning to `O=C(c1cccc(N2C(=O)CCS2(=O)=O)c1)N1CCN(Cc2ccccc2)CC1`, the “% Inhibition” value is -8% and the Z score is reported as 1.02.
